{
  "source": "the supplement of paper PMC8728848",
  "test_in_all_cases": "glycan array binding signal (z-score within array); higher = stronger binding",
  "conditions_in_all_cases": "glycan notation: IUPAC condensed, linker removed",
  "key": {"[1]": {"target": "Neu5Ac(a2-3)Gal(b1-4)GlcNAc", "outline": "(§1)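 Glycan array data came from 3228 arrays in the Consortium for Functional Glycomics database, and only arrays with an available protein sequence were kept. Glycan names were put into IUPAC-condensed notation, and columns mapping to the same glycan were averaged. The binding signal is a within-array Z-score, averaged across arrays of one protein sequence run at different concentrations or buffers and across linkers. A negative Z-score can be read as non-binding.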"}, "[2]": {"target": "Neu5Ac(a2-3)Gal(b1-4)GlcNAc(b1-2)Man", "outline": "as §1"}, "[3]": {"target": "Neu5Ac(a2-3)Gal(b1-4)GlcNAc(b1-2)Man(a1-3)[GlcNAc(b1-2)Man(b1-4)GlcNAc(b1-2)Man(a1-6)]Man(b1-4)GlcNAc(b1-4)GlcNAc", "outline": "as §1"}, "[4]": {"target": "Neu5Ac(a2-3)Gal(b1-4)GlcNAc(b1-2)Man(a1-3)[GlcNAc(b1-4)][Neu5Ac(a2-3)Gal(b1-4)GlcNAc(b1-2)Man(a1-6)]Man(b1-4)GlcNAc(b1-4)GlcNAc", "outline": "as §1"}, "[5]": {"target": "Neu5Ac(a2-3)Gal(b1-4)GlcNAc(b1-2)Man(a1-3)[Neu5Ac(a2-3)Gal(b1-4)GlcNAc(b1-2)Man(a1-6)]Man(b1-4)GlcNAc(b1-4)GlcNAc", "outline": "as §1"}, "[6]": {"target": "Neu5Ac(a2-3)Gal(b1-4)GlcNAc(b1-2)Man(a1-3)[Neu5Ac(a2-3)Gal(b1-4)GlcNAc(b1-2)Man(a1-6)]Man(b1-4)GlcNAc(b1-4)[Fuc(a1-6)]GlcNAc", "outline": "as §1"}, "[7]": {"target": "Neu5Ac(a2-3)Gal(b1-4)GlcNAc(b1-2)Man(a1-3)[Neu5Ac(a2-6)Gal(b1-4)GlcNAc(b1-2)Man(a1-6)]Man(b1-4)GlcNAc(b1-4)GlcNAc", "outline": "as §1"}, "[8]": {"target": "Neu5Ac(a2-3)Gal(b1-4)GlcNAc(b1-2)[Neu5Ac(a2-3)Gal(b1-4)GlcNAc(b1-4)]Man(a1-3)[GlcNAc(b1-4)][Neu5Ac(a2-3)Gal(b1-4)GlcNAc(b1-2)[Neu5Ac(a2-3)Gal(b1-4)GlcNAc(b1-6)]Man(a1-6)]Man(b1-4)GlcNAc(b1-4)GlcNAc", "outline": "as §1"}, "[9]": {"target": "Neu5Ac(a2-3)Gal(b1-4)GlcNAc(b1-2)[Neu5Ac(a2-3)Gal(b1-4)GlcNAc(b1-4)]Man(a1-3)[GlcNAc(b1-4)][Neu5Ac(a2-3)Gal(b1-4)GlcNAc(b1-4)Man(a1-6)]Man(b1-4)GlcNAc(b1-4)GlcNAc", "outline": "as §1"}, "[10]": {"target": "Neu5Ac(a2-3)Gal(b1-4)GlcNAc(b1-2)[Neu5Ac(a2-3)Gal(b1-4)GlcNAc(b1-6)]Man(a1-6)[Neu5Ac(a2-3)Gal(b1-4)GlcNAc(b1-2)Man(a1-3)]Man(b1-4)GlcNAc(b1-4)GlcNAc", "outline": "as §1"}, "[11]": {"target": "Neu5Ac(a2-3)Gal(b1-4)GlcNAc(b1-2)[Neu5Ac(a2-3)Gal(b1-4)GlcNAc(b1-6)]Man(a1-6)[Neu5Ac(a2-3)Gal(b1-4)GlcNAc(b1-2)Man(a1-3)][GlcNAc(b1-4)]Man(b1-4)GlcNAc(b1-4)GlcNAc", "outline": "as §1"}, "[12]": {"target": "Neu5Ac(a2-3)Gal(b1-4)GlcNAc(b1-3)Gal", "outline": "as §1"}, "[13]": {"target": "Neu5Ac(a2-3)Gal(b1-4)GlcNAc(b1-3)Gal(b1-3)GlcNAc", "outline": "as §1"}, "[14]": {"target": "Neu5Ac(a2-3)Gal(b1-4)GlcNAc(b1-3)Gal(b1-4)GlcNAc", "outline": "as §1"}, "[15]": {"target": "Neu5Ac(a2-3)Gal(b1-4)GlcNAc(b1-3)Gal(b1-4)GlcNAc(b1-2)Man(a1-3)[Neu5Ac(a2-3)Gal(b1-4)GlcNAc(b1-3)Gal(b1-4)GlcNAc(b1-2)Man(a1-6)]Man(b1-4)GlcNAc(b1-4)GlcNAc", "outline": "as §1"}, "[16]": {"target": "Neu5Ac(a2-3)Gal(b1-4)GlcNAc(b1-3)Gal(b1-4)GlcNAc(b1-3)Gal(b1-4)GlcNAc", "outline": "as §1"}, "[17]": {"target": "Neu5Ac(a2-3)Gal(b1-4)GlcNAc(b1-3)Gal(b1-4)GlcNAc(b1-3)Gal(b1-4)GlcNAc(b1-2)Man(a1-3)[Neu5Ac(a2-3)Gal(b1-4)GlcNAc(b1-3)Gal(b1-4)GlcNAc(b1-3)Gal(b1-4)GlcNAc(b1-2)Man(a1-6)]GalNAc", "outline": "as §1"}, "[18]": {"target": "Neu5Ac(a2-3)Gal(b1-4)GlcNAc(b1-3)Gal(b1-4)GlcNAc(b1-3)GalNAc", "outline": "as §1"}, "[19]": {"target": "Neu5Ac(a2-3)Gal(b1-4)GlcNAc(b1-3)Gal(b1-4)GlcNAc(b1-3)[Neu5Ac(a2-3)Gal(b1-4)GlcNAc(b1-3)Gal(b1-4)GlcNAc(b1-6)]GalNAc", "outline": "as §1"}, "[20]": {"target": "Neu5Ac(a2-3)Gal(b1-4)GlcNAc(b1-3)Gal(b1-4)GlcNAc(b1-6)[Gal(b1-3)]GalNAc", "outline": "as §1"}, "[21]": {"target": "Neu5Ac(a2-3)Gal(b1-4)GlcNAc(b1-3)Gal(b1-4)[Fuc(a1-3)]GlcNAc", "outline": "as §1"}, "[22]": {"target": "Neu5Ac(a2-3)Gal(b1-4)GlcNAc(b1-3)GalNAc", "outline": "as §1"}, "[23]": {"target": "Neu5Ac(a2-3)Gal(b1-4)GlcNAc(b1-3)[Neu5Ac(a2-3)Gal(b1-4)GlcNAc(b1-6)]GalNAc", "outline": "as §1"}, "[24]": {"target": "Neu5Ac(a2-3)Gal(b1-4)GlcNAc(b1-6)GalNAc", "outline": "as §1"}, "[25]": {"target": "Neu5Ac(a2-3)Gal(b1-4)GlcNAc(b1-6)[Gal(b1-3)]GalNAc", "outline": "as §1"}, "[26]": {"target": "Neu5Ac(a2-3)Gal(b1-4)GlcNAc(b1-6)[Neu5Ac(a2-3)Gal(b1-3)]GalNAc", "outline": "as §1"}, "[27]": {"target": "Neu5Ac(a2-3)Gal(b1-4)GlcNAc6S", "outline": "as §1"}, "[28]": {"target": "Neu5Ac(a2-3)Gal(b1-4)[Fuc(a1-3)]GlcNAc", "outline": "as §1"}, "[29]": {"target": "Neu5Ac(a2-3)Gal(b1-4)[Fuc(a1-3)]GlcNAc(b1-2)Man", "outline": "as §1"}},
  "note": "The other results are listed elsewhere or left out.",
  "data": [
    {"binder": "rAAL-2 (Agrocybe aegerita) (protein) MTSNVITQDLPIPVASRGFADIVGFGLDGVVIGRNAVNLQPFLAVKNFAQNAGGWLTTKHVRLIADTTGTGKGDIVGFGNAGVYVSVNNGKNTFADPPKMVIANFGYDAGGWRVEKHLRYLADIRKIGRADIIGFGEKGVLVSRNNGGLNFGPATLVLKDFGYDAGGWRLDRHLRFLADVTGNGHLDIVGFGDKHVFISRNNGDGTFAPAKSVIDNFCIDAGGWKIGDHPRFVADLTGDGTADIIGCGKAGCWVALNNGGGVFGQVKLVINDFGTDKGWQAAKHPRFIADLTGNGRGDVVGFGNAGVYVALNNGDGTFQSAKLVLKDFGVQQGWTVSKHRRFVVDLTGDGCADIIGFGEKETLVSYNDGKGNFGPVKALTNDFSFSGGKWAPETTVCWMANLDSSRH", "values": [
      {"measurement": "glycan array binding signal (z-score)", "setting": "[1]", "result": -0.177},
      {"measurement": "glycan array binding signal (z-score)", "setting": "[2]", "result": -0.123},
      {"measurement": "glycan array binding signal (z-score)", "setting": "[3]", "result": -0.132},
      {"measurement": "glycan array binding signal (z-score)", "setting": "[4]", "result": -0.314},
      {"measurement": "glycan array binding signal (z-score)", "setting": "[5]", "result": -0.431},
      {"measurement": "glycan array binding signal (z-score)", "setting": "[6]", "result": 0.355},
      {"measurement": "glycan array binding signal (z-score)", "setting": "[7]", "result": -0.234},
      {"measurement": "glycan array binding signal (z-score)", "setting": "[8]", "result": -0.304},
      {"measurement": "glycan array binding signal (z-score)", "setting": "[9]", "result": -0.303},
      {"measurement": "glycan array binding signal (z-score)", "setting": "[10]", "result": -0.266},
      {"measurement": "glycan array binding signal (z-score)", "setting": "[11]", "result": -0.33},
      {"measurement": "glycan array binding signal (z-score)", "setting": "[12]", "result": -0.222},
      {"measurement": "glycan array binding signal (z-score)", "setting": "[13]", "result": -0.105},
      {"measurement": "glycan array binding signal (z-score)", "setting": "[14]", "result": -0.146},
      {"measurement": "glycan array binding signal (z-score)", "setting": "[15]", "result": -0.02},
      {"measurement": "glycan array binding signal (z-score)", "setting": "[16]", "result": -0.178},
      {"measurement": "glycan array binding signal (z-score)", "setting": "[17]", "result": 0.284},
      {"measurement": "glycan array binding signal (z-score)", "setting": "[18]", "result": -0.205},
      {"measurement": "glycan array binding signal (z-score)", "setting": "[19]", "result": 0.13},
      {"measurement": "glycan array binding signal (z-score)", "setting": "[20]", "result": 0.16},
      {"measurement": "glycan array binding signal (z-score)", "setting": "[21]", "result": -0.159},
      {"measurement": "glycan array binding signal (z-score)", "setting": "[22]", "result": -0.27},
      {"measurement": "glycan array binding signal (z-score)", "setting": "[23]", "result": -0.309},
      {"measurement": "glycan array binding signal (z-score)", "setting": "[24]", "result": -0.253},
      {"measurement": "glycan array binding signal (z-score)", "setting": "[25]", "result": -0.321},
      {"measurement": "glycan array binding signal (z-score)", "setting": "[26]", "result": -0.231},
      {"measurement": "glycan array binding signal (z-score)", "setting": "[27]", "result": -0.122},
      {"measurement": "glycan array binding signal (z-score)", "setting": "[28]", "result": -0.291},
      {"measurement": "glycan array binding signal (z-score)", "setting": "[29]", "result": -0.299}
    ]}
  ]
}
